# Test results published in the supplement of paper PMC11417369.
# The list shows a part of the results.
# Tested on: PfSIP2 AP2 domain 1 (GST-tagged)
# Assay: gcPBM binding intensity (ln(normalized median fluorescence intensity)); higher = stronger DNA binding
# In short: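 Alexa488 anti-GST antibody, scanned at 488 nm, detected GST-tagged P. falciparum DNA-binding domains that had been expressed in E. coli and incubated for 1 h on an Agilent 4 × 180k array. The array carried primer-extended double-stranded 36-bp intergenic genomic probes and negative controls. Binding intensity is the highest Masliner-normalised natural-log median intensity across replicate spots of either orientation of each probe.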
row,Sequence,gcPBM binding intensity (ln)
1,GTATAATTGGAAATTACACACCTTATAATGTAACAT [CACACA_site6091],6.9
2,AATGATTTTAAAAAATGTACTTTATAAACAAAATTA [XGTACX_site3803],6.98
3,TAAAGTGTCAAATTCACACACATATATATATATATA [CACACA_site1380],9.38
4,TTTTTTTTTGTTAGTTGTACGTTAAATGAATTTACT [XGTACX_site7675],6.83
5,TAAATTAGAATAAATACACACAAATTAGAATTCTAT [CACACA_site7781],6.83
6,TAACCAAAAAAAAATATTTAAAATAAATATATATAT [CACACA_negctrl_site1516],8.92
7,TATTTTCTCTTAAAAAGTACTCATATATACATTTAT [XGTACX_site7748],6.89
8,TTTAGTTCATACTATGCACACTACGTATATTTTTAA [CACACA_site5484],7.08
9,ATAACATACATAACAACACACAATATTTATAGGTAT [CACACA_site6243],7.12
10,CGTTATATATTTTATAGTACTTTTTGTAAATTTTTT [XGTACX_site7682],7.14
11,ATTAATAAGAAGAAAAGTACAAAACAAAAAGATATA [XGTACX_site7473],7.14
12,TGTTCTAATATTTGTTGTACGTTTACGTTTCTCTCT [XGTACX_site18],6.87
13,AACATTTTAAAATAATGTACTTGAAAAAAAAACTAC [XGTACX_site8894],7.12
14,CATATAAATAAATATACATGCATACATACATATATA [TGCATGCA_site713],6.9
15,TATTTAAGAGTATGAACACACATCATACCCATATAA [CACACA_site5911],6.79
16,ATTTAACCAAATAATATATTTAAAAAATAGTCACAT [CACACA_negctrl_site274],6.96
17,TTAATTTATGTTAATGGTACGTAAATGCATTTATTT [XGTACX_site3002],7.17
18,TTTTATAATTTGAGAACATGCAACATAAATATAAAG [TGCATGCA_site965],7.48
19,TATAATATATGAAAAAGTACAAATATTTCGATGGTC [XGTACX_site129],7.24
20,TTTATTAAATATATATGTACATATCAAAATGTATAA [XGTACX_site3181],7.01
21,GTTAAACATCTTCTGTGATATGTTAGAATATTATTT [CACACA_negctrl_site687],6.7
22,TTTTTTTTCTATTGAGCACACATATCACGATTAGTA [CACACA_site7992],7.22
23,TATTTCACAAACCTTACATGCGGTTTATTTATATAT [TGCATGCA_site123],6.9

row,Sequence,gcPBM binding intensity (ln)
1,ATAATTTATATCATTACACACATTTTTTATATTTTT [CACACA_site3450],7.09
2,TTTTTGAATGTTTGCACACAAATCTCATAATTTTAG [CACACA_site357],6.96
3,TAGTTACATAAAATATGTACGTATAATTTTTTTATT [XGTACX_site3847],7.11
4,TGGTATATACGACACACACACATATGTATAAATATA [CACACA_site6561],7.17
5,TATTTTTAAAAGTTAACAGAAAAAATATAAATAAAT [GTGCAC_negctrl_site295],7.09
6,TTTTCCCTTTTTTCCGCACACAATAAAATAAATAAA [CACACA_site2807],7.7
7,TGTAATAAAATAATTAGTACACATATATGTATATTT [XGTACX_site5896],6.92
8,TACCATAATCAATGCACACATAACAAAATATTATTA [CACACA_site2722],7.33
9,TTTATCATGAACAGAAGTACATTTATATCAATGTCT [XGTACX_site6470],6.79
10,ATATATATATAATGTTGTACGTTTTATTCTCCCATT [XGTACX_site8071],8.99
11,ATATATATATATTTTACACACAATGGAGAAAAAAAT [CACACA_site644],8.51
12,TTTACACTTTTTTTTGTACACACTAAAAAGATTAAC [CACACA_site3933],7.23
13,TGTTGTTACCTATATACACACATATAAATATTATAG [CACACA_site7180],6.99
14,AAAAAAAAAAAAAAAACACACAAGGATCAGATAGAT [CACACA_site7743],7.56
15,TTTTTCAGAAAAGAAACACACATATAAATATTTATA [CACACA_site7170],6.96
16,AGGGCATATATATATGCACACATACATATATACATG [CACACA_site9282],7.3
17,AATATTATGATATTATGTACATATTAAAAGCACCAC [XGTACX_site6236],9.58
18,TATGCATATACACAAGCACACATATATATATATATA [CACACA_site8266],9.4
19,AAAAAAAAAAAAAAAAAAACTAATATAATAAAAATA [TGCATGCA_negctrl_site150],8.03
20,AAAAAAATAATATAATATTAAATCTTAGTTAATAAA [GTGCAC_negctrl_site658],6.63
21,TTTTTTTTTTTTTACACACCCAAATCACATACATAT [CACACA_site6089],7.35
22,TTTTTTTTTTTTTTTTCTTTTTTTTTTTTAAATAAG [XGTACX_negctrl_site418],6.78
23,AACATCTTATCATCATGTACGAAGCAGTTTTATAAG [XGTACX_site2490],6.98

row,Sequence,gcPBM binding intensity (ln)
1,TATAATAAATATACTGGTACACAAATATATATATTT [XGTACX_site7741],7.04
2,TGTAATTTTTTACGTTGTACATATATTAACAATATA [XGTACX_site3991],7.08
3,ATATTATATTTACATAGTACACTATATGTATATATA [XGTACX_site2101],6.94
4,TTACATATTTTCATTTGTACATATTCATTTTTTTTC [XGTACX_site6988],6.91
5,AAATAACCCACGTGCATGCACTTCAATAACTGAACT,9.05
6,TAAAAAAGAAAAAGAGCACACAAAAATATTTAACCT [CACACA_site8885],6.95
7,TATATATTTATATATTGTACACTCTTATGTAGTGTA [XGTACX_site210],6.95
8,ATTTTTATATTTAATACACACATAAAATCATACCAT [CACACA_site23],7.13
9,ATGTCAGGGAAAAAAACACACAAGAGTATGATATGT [CACACA_site2180],6.93
10,AATATATACATACATACATGCACATATATATATATA [TGCATGCA_site393],9.23
11,AAATAGTTGTTATGGGTGCAAACCACATATATATAA [GTGCAC_site9428],11
12,AGGCCTTTTAGTATTTCACACACGTAAATGTGTATA [CACACA_site8284],6.8
13,ATTTGTTTAAGTCACGAACACACATATATCATCAAT [CACACA_site985],6.92
14,ATTATTTACCACAACACACAAATATTTACCAATCAT [CACACA_site5472],7.33
15,GTTTATTAGGAATTATGTACACAGTTTTATAAAGAA [XGTACX_site2994],7.31
16,AATATAATATATTGCACACAAAAAGTGAATTATTCT [CACACA_site1684],7.12
17,AAATTAAATGTAAGCACACATAAATTATACGCATAT [CACACA_site3335],6.92
18,ACATTGAATAAATAATGTACATATATAATATATATT [XGTACX_site95],7.05
19,TTGCAGTATTTCGGAACACACAAACATAAATATGTA [CACACA_site5307],7.06
20,AAATATTATTCATTTTGTACGTATAATTTTTAATGA [XGTACX_site3509],6.95
21,AGTAGTCTGGAGAAAAGTACACAGTATCTGGTAGCT [XGTACX_site2544],6.82
22,TATAATAATCCACAAGCACACACACCCACATATATA [CACACA_site8343],7.2
23,GATCTTTCACATATATATATAAAGGATATTATGGTA [CACACA_negctrl_site522],7.04

row,Sequence,gcPBM binding intensity (ln)
1,ATTATATTATATTATACATGCATAATATTATATAAA [TGCATGCA_site647],7.08
2,TTATTACACAAATGGTGTACTTTTGAGGAACCAAAA [XGTACX_site4279],7.23
3,TTTTCATTCTTTTCCTTTGATTTACAATAGTATATT [GTGCAC_negctrl_site687],6.8
4,TCATTATATTATTCTTGTACTTATATCCTTTTTTGA [XGTACX_site5320],6.97
5,TAAAAGTTCACCTGTACACACATATATATCTGTACA [CACACA_site5019],7.04
6,CAAAATATTATCATGATGCACTTTACACTCTAAGGT,8.34
7,AAAAAATAAAAGTGGGGTACATGTCATTATGTGCAT [XGTACX_site3753],7.08
8,TTTTTTTCGTATATTACACACTATAAATAGAAATTA [CACACA_site6278],7.1
9,TCATATTTTACATATGCATGTTAATAATACAAACAT [TGCATGCA_site994],6.9
10,ATTTATTTATGTATTTGTACGTATATATTTATGCAT [XGTACX_site5218],7.05
11,GTATAACAACTGATAAAAGAAAAAAAATTTATTATT [CACACA_negctrl_site377],6.8
12,ATAATATTTTTAAACTGTACTTTTATAAACACTTAT [XGTACX_site2625],7.2
13,ATATTATGTCTACATAAACACACATATATATAAAAA [CACACA_site7976],7.14
14,AATAAATATTCATTTTGTACATATTTTTCGTATATG [XGTACX_site6104],6.84
15,TTACCATAAGTATGTGGTACACTTTAAATGAAGATA [XGTACX_site6972],7.06
16,AATAGTTATAAATATAAATATATATATATATATATA [CACACA_negctrl_site414],9.4
17,TTAACATCAAAATATGCACACAAACAATTAGCGGTA [CACACA_site8801],7.82
18,TATATATATAAATACACACACACCCTAAAAATATAT [CACACA_site4970],7.57
19,TTTTTTTTTTTTTTTACACACACAAAATATTATATG [CACACA_site2471],6.88
20,TATTATTTACCTTGCTAGTTCGTTCCAAATTTTATG [XGTACX_negctrl_site197],7.15
